The supplement of paper PMC11417369
± gives the standard deviation of the averaged measurements. The list shows a part of the results.

System: PfAP2-LT AP2 domain (GST-tagged)
Test: gcPBM binding intensity (ln(normalized median fluorescence intensity)); higher = stronger DNA binding
Method in brief: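 GST-tagged P. falciparum DNA-binding domains, expressed in E. coli (about 25 μg on average), were applied for 1 h to an Agilent 4 × 180k array of primer-extended double-stranded 36-bp intergenic genomic probes plus negative controls. The binding buffer was 1× PBS with 1% milk, 0.2 mg/ml BSA, 0.5% salmon testes DNA and 0.03% Triton X-100. Bound protein was detected with Alexa488 anti-GST antibody and scanned at 488 nm. Binding intensity is the highest Masliner-normalised natural-log median intensity across replicate spots of either probe orientation.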

| Sequence | gcPBM binding intensity (ln) |
| --- | --- |
| TTTTATTATTTTTGTTGTACAGTATACTGTATGATT [XGTACX_site5359] | 8.98 ± 0.45 |
| AAAAAAAAGGAAAATAAAAATAAAAAAAAATAATAA [XGTACX_negctrl_site601] | 8.55 ± 0.56 |
| TGAGAAAAAAAGAATTGTACATATAAAATATAACAA [XGTACX_site3500] | 8.59 ± 0.44 |
| TTATCACATTATTGCACACACATAAAGAAAAAAATA [CACACA_site2841] | 9.26 ± 0.35 |
| AAAGATACTTTCCTCAAACACACAAAACTATACAAC [CACACA_site1475] | 9.04 ± 0.36 |
| ATATAAGAACAAAATTGTACATAAATATTTATATAA [XGTACX_site7404] | 8.74 ± 0.49 |
| ATAAATCAAAGGCACACACACAAAAAAAAAAAAAAA [CACACA_site160] | 9.62 ± 0.49 |
| TGTTTTTTATATTACTGTACATGTTTTGGAATAATA [XGTACX_site4716] | 8.75 ± 0.4 |
| AGTTTTATGTAGTGTTGTACTTTATACAAATATATT [XGTACX_site614] | 8.94 ± 0.41 |
| GCGGGTTTATCTTTCGCACACCTTACATTTTAGAAT [CACACA_site2015] | 9.02 ± 0.42 |
| ATATCACATTCCACGGTACACACTAAAAGAAAAATC [CACACA_site3611] | 9.06 ± 0.45 |
| AACAAAAATAGAAACACACATACATTGGTTTTCTTT [CACACA_site2534] | 8.88 ± 0.42 |
| TATTTTTGTATATATTTATTCTTATTTTACAGGAAA [TGCATGCA_negctrl_site472] | 8.44 ± 0.55 |
| ACATTTAAGTTTAGCTGTACATATTCATCATAATTA [XGTACX_site37] | 8.79 ± 0.32 |
| GTATCATTAAATTATTGTACATATATATATATATAT [XGTACX_site8809] | 9.315 ± 0.064 |
| TATTCCTTCTACAATTAAATAATTATAATAAATATA [GTGCAC_negctrl_site26] | 8.1 ± 0.41 |
| AAAAAAAAATAATATTGTACACACATAAATTCTTTG [XGTACX_site4315] | 8.82 ± 0.49 |
| TTAATTAATAGACACACACACATATAAATATAGATT [CACACA_site7143] | 9.6 ± 0.3 |
| GTTTTATTAAAAATGTGTACTTAATTATGAAAAAAA [XGTACX_site4689] | 8.21 ± 0.47 |
| GTGTATTTTCTGCGCACACACATGCAAAAAGAAATA [CACACA_site1148] | 9.35 ± 0.42 |
| TTTTTTATTGTGATACGTATATTATTTTTTGATAAA [CACACA_negctrl_site1] | 8.51 ± 0.42 |
| TATATTTACATTGTAACACACATGAAATATATATAT [CACACA_site61] | 8.74 ± 0.4 |

| Sequence | gcPBM binding intensity (ln) |
| --- | --- |
| TGTTGTAAATATGTTTGTACATAAATATATTATTTA [XGTACX_site5442] | 8.45 ± 0.43 |
| TATTGTTTTGATTGATGTACATGTTTAAAATATATA [XGTACX_site8430] | 8.76 ± 0.36 |
| AAAGTAAATTTAAGCACACACAACGAACTTTTATAC [CACACA_site7008] | 9.37 ± 0.32 |
| TAATCTATTTATATGTGTACCTATTTAGAAATGACA [XGTACX_site5709] | 8.5 ± 0.45 |
| AAGAAAAAATATAATAATAATAAAATATATATAATA [TGCATGCA_negctrl_site475] | 8.59 ± 0.64 |
| TTTGTTTTTCATAGTGCACACATAACCAAAAATAGT [CACACA_site9030] | 8.91 ± 0.32 |
| ATATATATATATATATGTACATATTATATATGAACG [XGTACX_site1585] | 9.27 ± 0.52 |
| ATATATTTTTTTTCTTCACACACATGAATTATATAT [CACACA_site9053] | 9.39 ± 0.4 |
| AATAATAGAAAAAGGTGTACTTATAAACATATACAC [XGTACX_site6921] | 8.82 ± 0.49 |
| GTAATTATTATTAATAGTACACACTATGGCATTTCA [XGTACX_site5192] | 8.85 ± 0.31 |
| TATATTAATAGACACACACACATATTTATATTTATA [CACACA_site6859] | 9.55 ± 0.28 |
| TACTGTGATAGCACCACACACGCAAAAGTGAGTATA [CACACA_site1109] | 9.01 ± 0.35 |
| TATATTTAGTAAAAAGGTACCATTCTTATTTATATT [CACACA_negctrl_site1165] | 8.51 ± 0.49 |
| TTTCAGCCAAACGATAAACTACGACACTTGAACGAA [CACACA_negctrl_site1747] | 8.71 ± 0.33 |
| TAAGGCCCTTTTCATCGTACAGTAAAATATAAATAA [XGTACX_site1278] | 8.37 ± 0.39 |
| CATACTGTGATAGCACCACACACGCAAAAGAGGGTA [CACACA_site8285] | 9.19 ± 0.42 |
| CAAATACATGTGTAAAGTACATATTAATAAGTCTTT [XGTACX_site6342] | 8.96 ± 0.32 |
| AATTTAACCCATTTTATAATTATTACCACTATATAT [TGCATGCA_negctrl_site452] | 8.83 ± 0.44 |
| GAAAATTCTTAAGGCACACACATATATAATATATAC [CACACA_site569] | 9.19 ± 0.35 |
| ATTTTTTTTTTTATGTGTACATATATTTTTTTAATT [XGTACX_site7921] | 9 ± 0.54 |
| ATTTAATTTATAAAAACACACACAGGTAAAAAGGTG [CACACA_site8306] | 9.28 ± 0.36 |
| AAGAAAAAATAAACATGTACATAAATATATATATAT [XGTACX_site304] | 9.2 ± 0.43 |
